The record followed here is publication PMC12820563, “FoxP3 forms a head-to-head dimer in vivo and stabilizes its multimerization on adjacent microsatellites”.

Some of the results follow.

This experiment has as its target T1, MBP-FoxP1dN (Mus musculus, UniProt P58462 326-579).
T1 sequence: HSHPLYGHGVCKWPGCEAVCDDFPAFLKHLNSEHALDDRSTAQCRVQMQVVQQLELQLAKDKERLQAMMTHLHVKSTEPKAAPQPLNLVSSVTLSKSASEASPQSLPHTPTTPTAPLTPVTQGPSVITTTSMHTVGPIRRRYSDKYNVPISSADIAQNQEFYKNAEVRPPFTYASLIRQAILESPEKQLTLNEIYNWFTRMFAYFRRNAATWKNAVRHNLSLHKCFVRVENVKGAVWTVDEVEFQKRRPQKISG
Kind of experiment: PD-seq (MBP pull-down with sequencing); 20 mM Tris-HCl pH 7.5, 100 mM NaCl, 1.5 mM MgCl2, 0.4 uM protein, 0.1 uM dsDNA library, 30 min, room temperature, amylose pull-down; high values mean tight binding. To be noted: protein: recombinant; tags: His6-MBP; chain copies: 2; dsDNA, one strand shown. The gist of the method: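 Mouse FoxP3 or FoxP1 fragment lacking the N-terminus, His6-MBP-tagged and expressed in E. coli, was incubated at 0.4 µM with 0.1 µM Klenow-filled degenerate double-stranded DNA library for 30 min at room temperature in Tris pH 7.5 buffer with NaCl and MgCl2. Complexes captured on amylose resin were washed three times and their DNA sequenced on Illumina. Binding is reads-per-million enrichment of pull-down over input, replicates pooled.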
As for “GATGATTGTTCTCCCAGCTGATGAATTACGGATTTCGAGTAAACAAATTTTCCTAATCTTTCTGTTCAAGCGCCATCTAC”, the binding signal was 1.08 RPM ratio (pull-down/input).
The value for “GATGATTGTTCTCCCAGCTGATGAATTCCCGCACTCGAGTAAACAAATTTTCCTAATCTTTCTGTTCAAGCGCCATCTAC” was 0.813 RPM ratio (pull-down/input); that for “GATGATTGTTCTCCCAGCTGATGAATTTCAGACTTCGAGTAAACAAATTTTCCTAATCTTTCTGTTCAAGCGCCATCTAC” was 0.745 RPM ratio (pull-down/input).
The value for “GATGATTGTTCTCCCAGCTGATGAATTCGGGAGGTCGAGTAAACAAATTTTCCTAATCTTTCTGTTCAAGCGCCATCTAC” was 0.695 RPM ratio (pull-down/input).
For “GATGATTGTTCTCCCAGCTGATGAATTGTATTACTCGAGTAAACAAATTTTCCTAATCTTTCTGTTCAAGCGCCATCTAC”, the binding signal was 1.24 RPM ratio (pull-down/input).
In the case of “GATGATTGTTCTCCCAGCTGATGAATTGATGGAATCGAGTAAACAAATTTTCCTAATCTTTCTGTTCAAGCGCCATCTAC” it was 1.02 RPM ratio (pull-down/input); in that of “GATGATTGTTCTCCCAGCTGATGAATTATCGTGTTCGAGTAAACAAATTTTCCTAATCTTTCTGTTCAAGCGCCATCTAC”, 1.08 RPM ratio (pull-down/input); in that of “GATGATTGTTCTCCCAGCTGATGAATTTTGTCCCTCGAGTAAACAAATTTTCCTAATCTTTCTGTTCAAGCGCCATCTAC”, 0.963 RPM ratio (pull-down/input).
“GATGATTGTTCTCCCAGCTGATGAATTAGCCTCGTCGAGTAAACAAATTTTCCTAATCTTTCTGTTCAAGCGCCATCTAC”: the binding signal was 0.811 RPM ratio (pull-down/input).
On to “GATGATTGTTCTCCCAGCTGATGAATTATTGTTTTCGAGTAAACAAATTTTCCTAATCTTTCTGTTCAAGCGCCATCTAC”, for which the binding signal is 2.83 RPM ratio (pull-down/input).
The value for “GATGATTGTTCTCCCAGCTGATGAATTTAAAACGTCGAGTAAACAAATTTTCCTAATCTTTCTGTTCAAGCGCCATCTAC” was 0.858 RPM ratio (pull-down/input); that for “GATGATTGTTCTCCCAGCTGATGAATTGTTACGATCGAGTAAACAAATTTTCCTAATCTTTCTGTTCAAGCGCCATCTAC” was 1.24 RPM ratio (pull-down/input).
Take “GATGATTGTTCTCCCAGCTGATGAATTGTGCCGATCGAGTAAACAAATTTTCCTAATCTTTCTGTTCAAGCGCCATCTAC”: the binding signal was 1 RPM ratio (pull-down/input).
For “GATGATTGTTCTCCCAGCTGATGAATTGCTCCCTTCGAGTAAACAAATTTTCCTAATCTTTCTGTTCAAGCGCCATCTAC”, the binding signal was 0.934 RPM ratio (pull-down/input).
Regarding “GATGATTGTTCTCCCAGCTGATGAATTCCCCTCGTCGAGTAAACAAATTTTCCTAATCTTTCTGTTCAAGCGCCATCTAC”, the binding signal was 0.809 RPM ratio (pull-down/input).
Consider “GATGATTGTTCTCCCAGCTGATGAATTAATGCGCTCGAGTAAACAAATTTTCCTAATCTTTCTGTTCAAGCGCCATCTAC”, for which the binding signal was 1.26 RPM ratio (pull-down/input).
For “GATGATTGTTCTCCCAGCTGATGAATTTATGCCATCGAGTAAACAAATTTTCCTAATCTTTCTGTTCAAGCGCCATCTAC”, the binding signal is 1.23 RPM ratio (pull-down/input).
The value for “GATGATTGTTCTCCCAGCTGATGAATTGTATTAGTCGAGTAAACAAATTTTCCTAATCTTTCTGTTCAAGCGCCATCTAC” was 1.3 RPM ratio (pull-down/input).
The value for “GATGATTGTTCTCCCAGCTGATGAATTGTTAACTTCGAGTAAACAAATTTTCCTAATCTTTCTGTTCAAGCGCCATCTAC” was 1.1 RPM ratio (pull-down/input); that for “GATGATTGTTCTCCCAGCTGATGAATTCGGCCAGTCGAGTAAACAAATTTTCCTAATCTTTCTGTTCAAGCGCCATCTAC” was 0.767 RPM ratio (pull-down/input); that for “GATGATTGTTCTCCCAGCTGATGAATTCTGTTCTTCGAGTAAACAAATTTTCCTAATCTTTCTGTTCAAGCGCCATCTAC” was 0.815 RPM ratio (pull-down/input).
In the case of “GATGATTGTTCTCCCAGCTGATGAATTGCAAGTGTCGAGTAAACAAATTTTCCTAATCTTTCTGTTCAAGCGCCATCTAC” it was 1.22 RPM ratio (pull-down/input); in that of “GATGATTGTTCTCCCAGCTGATGAATTAACAGGATCGAGTAAACAAATTTTCCTAATCTTTCTGTTCAAGCGCCATCTAC”, 0.932 RPM ratio (pull-down/input).
Consider “GATGATTGTTCTCCCAGCTGATGAATTTTGTCTTTCGAGTAAACAAATTTTCCTAATCTTTCTGTTCAAGCGCCATCTAC”, for which the binding signal is 1.05 RPM ratio (pull-down/input).
In the case of “GATGATTGTTCTCCCAGCTGATGAATTAAACCGATCGAGTAAACAAATTTTCCTAATCTTTCTGTTCAAGCGCCATCTAC” it was 0.891 RPM ratio (pull-down/input); in that of “GATGATTGTTCTCCCAGCTGATGAATTGGAGCAGTCGAGTAAACAAATTTTCCTAATCTTTCTGTTCAAGCGCCATCTAC”, 0.783 RPM ratio (pull-down/input); in that of “GATGATTGTTCTCCCAGCTGATGAATTGTTCCGTTCGAGTAAACAAATTTTCCTAATCTTTCTGTTCAAGCGCCATCTAC”, 1.08 RPM ratio (pull-down/input).
In the case of “GATGATTGTTCTCCCAGCTGATGAATTGTACGGGTCGAGTAAACAAATTTTCCTAATCTTTCTGTTCAAGCGCCATCTAC” it was 0.837 RPM ratio (pull-down/input).
In the case of “GATGATTGTTCTCCCAGCTGATGAATTCTGCATGTCGAGTAAACAAATTTTCCTAATCTTTCTGTTCAAGCGCCATCTAC” it was 0.963 RPM ratio (pull-down/input); in that of “GATGATTGTTCTCCCAGCTGATGAATTCTGCGGCTCGAGTAAACAAATTTTCCTAATCTTTCTGTTCAAGCGCCATCTAC”, 0.754 RPM ratio (pull-down/input); in that of “GATGATTGTTCTCCCAGCTGATGAATTTAACCCCTCGAGTAAACAAATTTTCCTAATCTTTCTGTTCAAGCGCCATCTAC”, 0.853 RPM ratio (pull-down/input).
On to “GATGATTGTTCTCCCAGCTGATGAATTTCACGGATCGAGTAAACAAATTTTCCTAATCTTTCTGTTCAAGCGCCATCTAC”, for which the binding signal was 0.824 RPM ratio (pull-down/input).
In the case of “GATGATTGTTCTCCCAGCTGATGAATTGGTCAGTTCGAGTAAACAAATTTTCCTAATCTTTCTGTTCAAGCGCCATCTAC” it was 0.871 RPM ratio (pull-down/input); in that of “GATGATTGTTCTCCCAGCTGATGAATTAGCCTAATCGAGTAAACAAATTTTCCTAATCTTTCTGTTCAAGCGCCATCTAC”, 0.969 RPM ratio (pull-down/input); in that of “GATGATTGTTCTCCCAGCTGATGAATTCGCAAGCTCGAGTAAACAAATTTTCCTAATCTTTCTGTTCAAGCGCCATCTAC”, 0.781 RPM ratio (pull-down/input).
The value for “GATGATTGTTCTCCCAGCTGATGAATTGCAAAACTCGAGTAAACAAATTTTCCTAATCTTTCTGTTCAAGCGCCATCTAC” was 1.32 RPM ratio (pull-down/input); that for “GATGATTGTTCTCCCAGCTGATGAATTATTTGCATCGAGTAAACAAATTTTCCTAATCTTTCTGTTCAAGCGCCATCTAC” was 1.89 RPM ratio (pull-down/input).
For “GATGATTGTTCTCCCAGCTGATGAATTGGTGTTCTCGAGTAAACAAATTTTCCTAATCTTTCTGTTCAAGCGCCATCTAC”, the binding signal is 1.05 RPM ratio (pull-down/input).
For “GATGATTGTTCTCCCAGCTGATGAATTCCCAACATCGAGTAAACAAATTTTCCTAATCTTTCTGTTCAAGCGCCATCTAC”, the binding signal is 1.3 RPM ratio (pull-down/input).
As for “GATGATTGTTCTCCCAGCTGATGAATTTGGATGATCGAGTAAACAAATTTTCCTAATCTTTCTGTTCAAGCGCCATCTAC”, the binding signal is 0.889 RPM ratio (pull-down/input).
